Results taken from publication PMC6919601, “Identification of Plasmodium dipeptidyl aminopeptidase allosteric inhibitors by high throughput screening” (PLoS ONE, 2019).
In all, about 110,000 compounds went through this assay and about 230 (0.21%) showed an effect of 50% or more. Some of the results follow.

molecular target: DPAP1 (Plasmodium falciparum, UniProt Q8IIJ9); assay: primary screen, percent inhibition; read by cleavage of a fluorogenic dipeptide substrate; higher = more effect of the substance; parameters: species or system P. falciparum D10 trophozoite lysates; single well
Sequence (Q8IIJ9 whole entry, looked up): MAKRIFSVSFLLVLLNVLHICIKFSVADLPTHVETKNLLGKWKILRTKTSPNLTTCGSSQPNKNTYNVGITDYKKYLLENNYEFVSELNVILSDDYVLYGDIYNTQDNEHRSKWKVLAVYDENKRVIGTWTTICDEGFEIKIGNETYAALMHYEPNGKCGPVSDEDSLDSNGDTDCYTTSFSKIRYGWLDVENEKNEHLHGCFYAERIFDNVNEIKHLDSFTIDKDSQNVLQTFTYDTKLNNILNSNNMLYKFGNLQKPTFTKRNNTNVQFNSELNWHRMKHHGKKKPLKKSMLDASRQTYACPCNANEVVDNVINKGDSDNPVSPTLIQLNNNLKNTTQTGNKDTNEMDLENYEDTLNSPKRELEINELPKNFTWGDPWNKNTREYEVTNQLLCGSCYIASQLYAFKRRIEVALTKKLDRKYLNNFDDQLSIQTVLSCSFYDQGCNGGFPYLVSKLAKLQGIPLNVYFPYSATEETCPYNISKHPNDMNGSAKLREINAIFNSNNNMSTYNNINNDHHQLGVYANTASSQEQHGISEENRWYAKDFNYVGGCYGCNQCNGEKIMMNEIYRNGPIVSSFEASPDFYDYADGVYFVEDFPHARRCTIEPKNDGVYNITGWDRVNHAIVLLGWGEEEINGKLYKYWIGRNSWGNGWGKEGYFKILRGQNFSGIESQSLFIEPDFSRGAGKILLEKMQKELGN
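Note: 30 min substrate incubation versus DMSO and 10 µM JCP410 controls.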

Row | SMILES | % Inhibition @ 10 uM [%]
1 | O=C(CN(c1ccccc1)S(=O)(=O)c1ccccc1)N1CCc2ccccc2C1 | -3.19
2 | C=CCOc1ccc(-n2c(C)cc(/C=C3\NC(=O)NC3=O)c2C)cc1 | 4.11
3 | CC[C@H](NC(=O)[C@H](Cc1nccs1)NC(=O)c1ccc(-c2ccccc2Cl)cc1)C(=O)c1nc2ccccc2o1 | -0.207
4 | CC(C)(C)OC(=O)N1CCC(C(=O)N[C@@H](Cc2ccc3ccccc3c2)C(=O)N[C@@H](CCc2ccccc2)C(=O)CO)CC1 | -0.778
5 | CCC(C)NC(=O)Cn1nc(C)n2c(cc3cc(F)ccc32)c1=O (stereo not drawn) | -1.7
6 | O=C(C(c1ccccc1)c1ccccc1)N1CCN(Cc2ccncc2)CC1 | -8.33
7 | CCOCCCNC(=O)c1ccc(CSc2nc3ccncc3n2Cc2cccc(C)c2)cc1 | -0.637
8 | CCCCOC(=O)c1sc2nc3c(cc2c1N)C(=O)CC(C)(C)C3 | 0.343
9 | CCS(=O)(=O)N1CCC2(CC1)OC(=O)C(C)=C2C(=O)NCCOC | -0.0121
10 | Clc1ccc(C2=NCCn3cccc32)cc1Cl | -4.61
11 | CN(C)CCN(Cc1ccco1)C(=O)Cn1nc(Cc2ccncc2)c2ccccc2c1=O | 5.09
12 | c1cncc(CNc2ncnc3sc4c(c23)CCC4)c1 | -2.29
13 | Cc1c(NC(=O)c2ccc(C(=O)Nc3c(C)n(C)n(-c4ccccc4)c3=O)cc2)c(=O)n(-c2ccccc2)n1C | -1.77
14 | Cc1ccc(CSc2nc3ccncc3n2CC(=O)N(C)C2CCCCC2)cc1 | -6.01
15 | CC(C)(C)c1ccc(C(=O)Nc2ccc(O)cc2)cc1 | -0.545
16 | O=C(COc1ccc(Br)cc1Br)Nc1cccc(Cl)c1 | 4.12
17 | O=C1NC(=S)N(c2cccc(Cl)c2)C(=O)/C1=C/c1ccco1 | 6.66
18 | O=C(Nc1ccc(Cl)cc1)c1cc2n(n1)C(C(F)(F)F)CC(c1cccs1)N2 (stereo not drawn) | -2.6
19 | COc1ccc(OC)c(C2CC(=O)N=C(N)N2)c1 (stereo not drawn) | -2.41
20 | Cc1oc(-c2ccccc2)cc1C(=O)O | 2.65
21 | Cc1cccc(/C=C2/NC(=O)N(CC(=O)Nc3cccc(C)c3)C2=O)c1 | -9.2
22 | COCCNC(=O)CCCN1C(=O)CSc2nc(C)cc(C)c21 | 1.03
23 | COc1ccc(S(=O)(=O)N2CCN(Cc3ccccc3Br)CC2)cc1 | -2.34
24 | COC(=O)c1c(N)sc(C)c1-c1ccc(C)cc1 | -4.82
25 | Clc1ccc(Nc2nc(Cl)nc(NC3CCCCC3)n2)cc1 | 0.467

Row | SMILES | % Inhibition @ 10 uM [%]
26 | CC(C)(C)NC(=O)c1sccc1C(=O)O | -0.469
27 | CSc1ncc(Cl)c(C(=O)Nc2nc3ccc(Cl)cc3s2)n1 | 2.19
28 | O=C(c1cc2c(Cl)ccc3c2n1CCO3)N1CCc2ccccc2C1 | 2.65
29 | O=C(NCCN1CCOCC1)c1sc2cc(Cl)ccc2c1Cl | 8.97
30 | O=C(O)C1C2CC3CC(C2)CC1(n1ncc(N2CCOCC2)c(Cl)c1=O)C3 (stereo not drawn) | 4.33
31 | CCOc1cc(C2C(C#N)=C(N)Oc3[nH]nc(-c4ccc5c(c4)OCO5)c32)ccc1O (stereo not drawn) | -7.3
32 | COc1cc(OC)nc(NC(=O)CSc2nc3ccccc3s2)n1 | -2.16
33 | Cc1nc2nc(C)c(CCC(=O)NCCc3c[nH]c4ccccc34)c(C)n2n1 | -2.25
34 | Nc1c(-c2nc(-c3ccc4c(c3)OCO4)no2)nnn1-c1cccc(C(F)(F)F)c1 | 4.95
35 | COCCNC(=O)c1ccc(CS(=O)(=O)c2ccc(Cl)cc2)o1 | 2.35
36 | CCCCSC1=C(C#N)C(c2ccccc2Cl)CC(=O)N1 (stereo not drawn) | 0.777
37 | O=C(O)C1NCCC1c1ccccc1 (stereo not drawn) | -1.66
38 | CN1C2CCC1CC(NC(=O)N1c3ccccc3CCc3ccccc31)C2 (stereo not drawn) | 0.986
39 | CCn1cc(C(=O)NCCOC)c2cc(OC)c(OC)cc2c1=O | -4.86
40 | O=C(Nc1cccc2c1C(=O)c1ccccc1C2=O)c1cccc(Br)c1 | 0.317
41 | CN(C)CCCNC(=S)N(Cc1ccccc1)Cc1ccccc1 | 5.23
42 | COc1ccc(OC)c(C2Nc3ccccc3N=C3CC(C)(C)CC(O)=C32)c1 (stereo not drawn) | 2.67
43 | CC(=O)Nc1sc2c(c1C(=O)Nc1cccc(Cl)c1)CCCCC2 | -6.25
44 | O=C(C1CCN(c2nnc(N3CCCC3=O)s2)CC1)N1CCc2ccccc2C1 | -1.08
45 | CCOc1cccc(C(=O)Nc2ccc(NC(=O)c3ccco3)c(OC)c2)c1 | -4.01
46 | N#CCNC(=O)[C@H](Cc1cccs1)NC(=O)OCc1ccccc1 | -8.82
47 | Cc1ccccc1C(=O)c1cccn1CC(=O)NCCCN1CCCC1=O | 5.65
48 | Cc1cccc(C(=O)N2CCOCC2)c1 | -0.34
49 | Cc1ccc(S(=O)(=O)N2CCCC(C(=O)NCc3ccc(F)cc3)C2)cc1 (stereo not drawn) | 0.387
50 | Cc1ccc(-n2ncc(C(=O)Nc3ccccn3)c2C2CCN(C(=O)OC(C)(C)C)CC2)c(C)c1 | 0.536

Row | SMILES | % Inhibition @ 10 uM [%]
51 | COc1ccc(S(=O)(=O)NCc2cn3c(C)csc3n2)cc1F | -0.72
52 | CCSc1ncc(Cl)c(C(=O)Nc2nc3ccc(F)cc3s2)n1 | 3.77
53 | Cc1cccn(C(=O)C2CCCCC2)/c1=N/C(=O)C1CCCCC1 | -1.1
54 | Cc1cc(NS(=O)(=O)c2ccc(NC(=O)c3ccc(Cl)cc3)cc2)no1 | 0.408
55 | CCOCc1cnc(C)nc1NCC(=O)c1c(C)n(C)c2ccc(OC)cc12 | -11.3
56 | CCOc1ccccc1N1CCN(C(=O)C2CCCCC2)CC1 | -0.622
57 | Fc1ccccc1N1CCN(Cc2ccc(Cl)cc2)CC1 | 3.16
58 | CCc1ccc(/C=C2\C(=N)N3N=C(N4CCCCC4)SC3=NC2=O)cc1 | 4.88
59 | CN1CCN(C2=C(Cl)C(=O)N(C3CCCCC3)C2=O)CC1 | 1.58
60 | COc1ccc(C2=NN(c3nc(-c4ccccc4)cs3)C(c3ccco3)C2)cc1 (stereo not drawn) | -2.39
61 | O=C(COc1ccc(Cl)cc1S(=O)(=O)NCCc1cccs1)N1CCOCC1 | -6.13
62 | OCC1CCCCN1Cc1ccc2c(c1)OCO2 (stereo not drawn) | 2.65
63 | CC(CCc1ccccc1)Nc1nc2c(S(=O)(=O)c3ccccc3)nnn2c2ccccc12 (stereo not drawn) | -0.285
64 | COCCn1cnc2cc(C)c(C)cc21 | 0.0289
65 | Cc1oc(-c2cccs2)nc1CSCC(=O)N1CCC2(CC1)OCCO2 | 3.99
66 | O=C(C1=C(O)C(=O)N(c2ccccn2)C1c1cccnc1)c1ccccc1 (stereo not drawn) | 2.5
67 | COc1ccc(/C=C/C(=O)c2c(O)cc(C)oc2=O)cc1OC | 3.31
68 | C=CCn1c(SCC)nc2c(c1=O)C1(CCCC1)Cc1ccccc1-2 | 6.06
69 | O=C(/C=C(\O)c1ccc(Br)cc1)C(F)(F)F | 5.38
70 | O=C1c2cccnc2Oc2ccc(Cl)cc2N1Cc1ccc(F)cc1 | -13.4
71 | CC1CC(C)CN(CCCNC(=O)CCn2nc(-c3ccccc3)ccc2=O)C1 (stereo not drawn) | 1.62
72 | CCC(C)NC(=O)CCN(Cc1c(Cl)cccc1Cl)S(=O)(=O)c1ccc(C)cc1 (stereo not drawn) | 6.13
73 | Cc1ccc(OCC(=O)Nc2ccc3c(c2)OCO3)cc1 | 1.84
74 | CCOC(=O)C1CCCCN1CC[C@@H](C)CCC=C(C)C (stereo partly drawn) | -6
75 | CCc1ccc(C2C(C#N)=C(N)OC3=C2C(=O)CCC3)s1 (stereo not drawn) | -6.22

Row | SMILES | % Inhibition @ 10 uM [%]
76 | CC(=C1C(=O)c2ccccc2C1=O)N1CCN(C/C=C/c2ccccc2)CC1 | -3.74
77 | CC(C)CC(=O)N1CCN(C(=O)c2ccco2)CC1 | -2.37
78 | Cn1c2ccc(Br)cc2c2nc3ccccc3nc21 | 2.83
79 | CCOc1cc(/C=C2\SC(=O)NC2=O)ccc1OCC#N | 2.95
80 | COc1ccc(C(=O)C2=C(O)C(=O)N(CCCN(C)C)C2c2ccncc2)c(C)c1 (stereo not drawn) | -1.61
81 | Cc1ccc(C)c(NC(=O)Cn2cnc3ccccc3c2=O)c1 | 0.431
82 | N[C@@H](CC1CCCCC1)C(=O)N[C@@H](CCc1ccccc1)CS(=O)(=O)NCCNc1ccccc1 | -0.214
83 | NC(=O)c1ccccc1NC(=O)C1CC2CCC1C2 (stereo not drawn) | 3.48
84 | CC(C)(C)c1ccc(S(=O)(=O)/N=C2\C=CC(=O)c3ccccc32)cc1 | 3.54
85 | CCCCNC(=O)C1CCN(S(=O)(=O)N2CCC3(CC2)OCCO3)CC1 | -2.99
86 | Cc1[nH]nc2c1C(c1cc(COc3ccccc3Br)c(C)s1)C(C#N)=C(N)O2 (stereo not drawn) | 4.7
87 | CCN1CCN(Cc2ccc3ccccc3c2)CC1 | 3.25
88 | Cn1c(SCC#CCO)nc2ccccc2c1=O | -18.6
89 | CC12C(=O)N(c3cccc(C(=O)O)c3)C(=O)C1C1C=CC2C1 (stereo not drawn) | 0.992
90 | CCOC(=O)N1CCC(NC(=O)CSCc2nc(-c3ccc(OC)cc3)oc2C)CC1 | 7.08
91 | CN(C(=O)CCn1cnc2onc(-c3ccc(F)cc3)c2c1=O)C1CCCCC1 | -2.34
92 | COc1cccc(CN2CCN(Cc3cccc(Cl)c3)CC2)c1OC | -0.0938
93 | O=C(Cc1cccs1)Nc1c(C(=O)N2CCN(c3ncccn3)CC2)oc2ccccc12 | -7.16
94 | COc1ccc(S(=O)(=O)N(CC(=O)N2CCCCC2)c2ccc(C)cc2)cc1 | -2.28
95 | COc1ccc(CCNC(=O)c2ccc(CNC(=O)c3ccc4c(c3)OCO4)cc2)cc1OC | 1.42
96 | COc1ccc(C=C2C(=O)c3ccccc3C2=O)c2ccccc12 | -1.47
97 | Cc1ccccc1S(=O)Cc1ccc(C(=O)NC(C)C)o1 (stereo not drawn) | 0.401
98 | CCCCNC(=O)c1ccc(CS(=O)Cc2ccc(C)cc2)o1 (stereo not drawn) | -4.82
99 | COc1ccc2[nH]c3c(=O)n(CCCCCC(=O)NCCNC(C)=O)c(=S)[nH]c3c2c1 | -5.79
